# Laboratory results as given in PMC4336329 (PLoS ONE, 2015).
# In all, about 310,000 compounds went through this assay and about 2,200 (0.71%) showed an effect of 50% or more. Effects have a minus sign here. The list shows a part of the results.
# Target: human ether-à-go-go-related gene (hERG) potassium channel (human, UniProt Q12809)
# Assay: primary screen, population patch clamp on CHO cells stably expressing hERG
# human ether-à-go-go-related gene (hERG) potassium channel, sequence (Q12809 whole entry, looked up): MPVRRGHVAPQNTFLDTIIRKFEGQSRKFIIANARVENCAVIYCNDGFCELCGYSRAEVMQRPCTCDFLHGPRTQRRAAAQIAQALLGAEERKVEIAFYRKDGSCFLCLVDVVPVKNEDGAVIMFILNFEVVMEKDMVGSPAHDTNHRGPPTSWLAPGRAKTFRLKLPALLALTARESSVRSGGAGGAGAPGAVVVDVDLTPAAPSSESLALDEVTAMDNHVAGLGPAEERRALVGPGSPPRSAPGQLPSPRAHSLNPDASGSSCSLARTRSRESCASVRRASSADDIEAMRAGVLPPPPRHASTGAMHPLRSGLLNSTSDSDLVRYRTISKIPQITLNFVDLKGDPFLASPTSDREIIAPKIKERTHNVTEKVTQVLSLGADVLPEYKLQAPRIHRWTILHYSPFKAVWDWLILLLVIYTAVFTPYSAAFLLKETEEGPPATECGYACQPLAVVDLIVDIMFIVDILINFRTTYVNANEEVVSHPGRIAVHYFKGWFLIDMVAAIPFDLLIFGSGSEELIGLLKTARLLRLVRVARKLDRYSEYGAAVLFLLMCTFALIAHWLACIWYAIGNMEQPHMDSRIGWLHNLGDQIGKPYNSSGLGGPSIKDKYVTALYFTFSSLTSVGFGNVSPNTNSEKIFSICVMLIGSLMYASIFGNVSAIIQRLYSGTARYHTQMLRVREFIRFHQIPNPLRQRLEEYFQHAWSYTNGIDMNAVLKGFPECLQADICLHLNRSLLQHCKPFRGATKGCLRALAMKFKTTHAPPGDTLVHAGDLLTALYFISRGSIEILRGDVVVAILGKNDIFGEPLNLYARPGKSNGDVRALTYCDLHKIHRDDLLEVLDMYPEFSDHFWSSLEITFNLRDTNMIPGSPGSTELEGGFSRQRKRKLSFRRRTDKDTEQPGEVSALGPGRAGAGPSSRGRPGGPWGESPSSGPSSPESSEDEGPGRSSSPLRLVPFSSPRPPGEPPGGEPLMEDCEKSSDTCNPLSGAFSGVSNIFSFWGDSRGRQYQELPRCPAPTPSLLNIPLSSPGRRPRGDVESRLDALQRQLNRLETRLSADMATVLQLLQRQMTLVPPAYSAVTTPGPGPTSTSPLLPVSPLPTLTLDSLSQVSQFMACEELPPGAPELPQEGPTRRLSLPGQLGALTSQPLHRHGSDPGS
row,Structure (SMILES),"hERG current change (%, negative = inhibition) at 1uM"
1,CS(C)=O.Cc1[nH]c2ccccc2c1/C=N/Nc1ccc([N+](=O)[O-])cc1S(=O)(=O)Nc1ccc(Cl)cc1,11.8%
2,Cc1nn(Cc2ccc(Cl)cc2Cl)c(C)c1NC(=O)C1C2CCC(O2)C1C(=O)O (centres unmarked),8.02%
3,Cc1ccc(S(=O)(=O)N2CCN(CCOc3cccc(C)c3)CC2)cc1,3.4%
4,CCc1ccc(NC(=O)C2CCN(S(=O)(=O)c3c(C)noc3/C=C/N(C)C)CC2)cc1,7%
5,NNC(=O)c1ccc(COc2cccc3cccnc23)cc1,5.5%
6,COc1ccc(-c2csc(NC(=O)c3ccc(N4C(=O)CCC4=O)cc3)n2)cc1,25.5%
7,O=C(O)c1ccc(N/N=C/c2c[nH]c3ccccc23)cc1,4.61%
8,O=C(COC(=O)c1ccccc1)Nc1ccccc1Sc1ccccc1,-1.22%
9,CCOC(=O)C(=O)/C(=C\N(C)C)c1onc(-c2ccccc2)c1C(=O)OC,10.4%
10,Cc1ccc(S(=O)(=O)N2CCN(C(=O)c3ccnn3C)CC2)cc1C,15.7%
11,CCS(=O)(=O)N1CCC(N2CCN(c3ccccc3)CC2)CC1,7.61%
12,Cc1cc(-c2nn(-c3ccccc3F)cc2CN(C)CC(O)CO)c(C)s1 (centres unmarked),-0.301%
13,Cc1ccc(N(Cc2ccccc2F)S(C)(=O)=O)cc1C,8.79%
14,CCO[C@H]1OC(C(N)=O)=C[C@@H](c2ccccc2)[C@@H]1CCCO,3.75%
15,COc1cc(NC(=O)c2ccco2)c(C(=O)OCC(=O)c2c[nH]c3ccccc23)cc1OC,12.3%
16,Cc1c(Cl)cccc1NC(=S)NC1CCCC1,12.9%
17,COc1ccc(NC(C)=O)cc1NC(=O)CSc1nnc(-c2ccccn2)n1C,-3.27%
18,Cc1ccccc1NC(=O)Cn1cnc2c(oc3ccccc32)c1=O,11.6%
19,CC(NCCO)C(=O)C12CC3CC(CC(C3)C1)C2.Cl (centres unmarked),13.5%
20,O=C(COc1ccc(Cl)cc1)NCc1ccc(F)cc1,8.04%
21,Cn1c(CNc2nc3ccccc3n2CCN2CCCCC2)nc2ccccc21,-14.8%
22,O=C(O)COc1c(F)c(F)c(C(F)(F)F)c(F)c1F,10.4%

row,Structure (SMILES),"hERG current change (%, negative = inhibition) at 1uM"
1,COC(=O)c1cc(C)sc1NC(=O)CCc1ccccc1,5.19%
2,Cn1c(SCC(=O)NCc2ccccc2)nnc1C1CC1,13.7%
3,O=C(CCN1CCN(c2ccccc2)CC1)NNC(=O)c1cccc2ccccc12,8%
4,COc1ccc(N2CSC3=C(C#N)C(c4cc(OC)c(OC)cc4OC)CC(=O)N3C2)c(OC)c1 (centres unmarked),-2.09%
5,O=C(CN1CCN(c2ccc(F)cc2)CC1)Nc1ccc(S(=O)(=O)N2CCOCC2)cc1,13.8%
6,COc1ccc(Cc2c3cc(OC)c(OC)cc3cc[n+]2C)cc1OC.[I-],1.79%
7,CCC(CC)NC(=O)c1oc2ccccc2c1COc1ccccc1,14.7%
8,CN(C(=O)CCc1nc2ccccc2s1)c1ccccc1,7.76%
9,CCOC(=O)C1=C(Nc2ccc(Cl)cc2)OCC1=O,14.8%
10,O=C(O/N=C/C1=C(Cl)c2ccccc2CC1)c1ccc(F)cc1,6.07%
11,CN1CCC(OC(=O)C23CCC(C)(C(=O)O2)C3(C)C)CC1 (centres unmarked),0.628%
12,O=C(Cc1c2ccccc2nc2ccccc12)c1ccccc1,-1.24%
13,Cc1ccc(S(=O)(=O)N2CCC(C(=O)C3C(=O)CC(C)(C)CC3=O)CC2)cc1,18.8%
14,CCOc1ccc(-c2cn[nH]c2N)cc1,-7.24%
15,Nc1ccc(OCc2ccccc2)cc1,10.7%
16,COC(=O)C1CCN(C(=O)c2c(-c3ccccc3Cl)noc2C)CC1,14%
17,CCn1c(C)nc2cc(C(=O)NNS(=O)(=O)c3c(F)cc(F)c(Cl)c3F)ccc21,8.35%
18,Cc1c(CC(=O)NCCCC(=O)O)c(=O)oc2c(C)c3oc4c(c3cc12)CCCC4,8.92%
19,CC(C)Oc1ccc2c(c1)OC(c1ccccc1)(C(F)(F)F)NC2=O (centres unmarked),3.67%
20,COc1ccccc1C(C)NS(=O)(=O)c1cccs1 (centres unmarked),14.2%
21,Cc1cc(C)c(C#N)c(SCCS(=O)(=O)c2ccc(Cl)cc2)n1,0.162%
22,COC(=O)/C(C#N)=C/c1occc1C,4.47%
